Test results as given in the supplement of paper PMC7826260.
The other results are listed elsewhere or left out. One pool of 16,384 single-stranded DNAs met each Rep nickase domain in vitro (3 µM enzyme, 1 h, 37 °C); shown is the middle of each 90-letter strand. A value is the log2 ratio of uncut reads to the pool without enzyme; strong cutting gives strongly negative numbers. There is no active / inactive call. The scaling is to total reads; uncut strands gain when others are lost, and binding without cutting may add a little.

How the values were obtained:
Test in all cases: uncleaved DNA left, log2 of reads against the no-enzyme library (log2 ratio); higher = less cleavage (more negative = more Rep cleavage of the k-mer); sequences stand for … in CTCGTCCG…ACCGGAGA
[1] = test system: T1, Rep nickase domain of Muscovy duck circovirus
T1 sequence (residues 1-111 of Rep, tag left off): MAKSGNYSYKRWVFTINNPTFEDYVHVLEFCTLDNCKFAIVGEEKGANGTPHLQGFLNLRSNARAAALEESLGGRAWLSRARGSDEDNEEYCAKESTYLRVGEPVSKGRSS
Description: (§1)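 A pool of 90-nt single-stranded DNAs with seven random bases just before the constant AC of the nick site (name = the seven bases) was cut by 3 µM recombinant His6-SUMO-tagged Rep nickase domain (300 nM DNA, 50 mM HEPES pH 8.0, 50 mM NaCl, 1 mM MnCl2, 1 h, 37 °C, three replicates). Uncut DNA was amplified and sequenced.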

[2] = test system: T2, Rep nickase domain of banana bunchy top virus
T2 sequence (residues 1-94 of Rep, tag left off): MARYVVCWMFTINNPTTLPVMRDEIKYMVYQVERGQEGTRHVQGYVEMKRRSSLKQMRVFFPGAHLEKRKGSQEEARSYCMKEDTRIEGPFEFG
Description: as §1

[3] = test system: T3, Rep nickase domain of cabbage leaf curl virus
T3 sequence (residues 1-116 of Rep, tag left off): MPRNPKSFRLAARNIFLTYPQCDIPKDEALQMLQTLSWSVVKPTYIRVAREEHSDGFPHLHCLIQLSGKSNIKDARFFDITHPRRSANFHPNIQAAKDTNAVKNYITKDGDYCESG
Description: as §1

[4] = test system: T4, Rep nickase domain of chickpea chlorotic dwarf virus
T4 sequence (residues 1-124 of Rep, tag left off): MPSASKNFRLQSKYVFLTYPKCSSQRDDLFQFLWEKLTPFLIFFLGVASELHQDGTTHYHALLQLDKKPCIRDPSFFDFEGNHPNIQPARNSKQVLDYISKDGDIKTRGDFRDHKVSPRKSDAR
Description: as §1

[5] = test system: T5, Rep nickase domain of faba bean necrotic yellows virus
T5 sequence (residues 1-98 of Rep, tag left off): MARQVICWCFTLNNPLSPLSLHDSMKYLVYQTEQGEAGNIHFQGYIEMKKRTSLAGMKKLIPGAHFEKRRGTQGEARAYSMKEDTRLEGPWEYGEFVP
Description: as §1

[6] = test system: T6, Rep nickase domain of maize striate mosaic virus
T6 sequence (residues 1-117 of Rep, tag left off): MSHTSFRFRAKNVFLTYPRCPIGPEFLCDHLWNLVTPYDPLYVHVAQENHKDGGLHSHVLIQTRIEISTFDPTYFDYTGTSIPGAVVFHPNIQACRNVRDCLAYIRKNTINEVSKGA
Description: as §1

[7] = test system: T7, Rep nickase domain of porcine circovirus 2
T7 sequence (residues 2-116 of Rep, tag left off): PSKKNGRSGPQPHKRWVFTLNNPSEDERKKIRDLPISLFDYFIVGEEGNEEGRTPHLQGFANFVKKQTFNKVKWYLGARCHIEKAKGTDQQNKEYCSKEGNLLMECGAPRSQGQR
Description: as §1

[8] = test system: T8, Rep nickase domain of tomato golden mosaic virus
T8 sequence (residues 1-124 of Rep, tag left off): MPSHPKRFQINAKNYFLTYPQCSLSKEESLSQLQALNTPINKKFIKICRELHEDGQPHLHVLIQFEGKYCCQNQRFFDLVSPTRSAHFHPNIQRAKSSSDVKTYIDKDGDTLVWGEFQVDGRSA
Description: as §1

[9] = test system: T9, Rep nickase domain of tomato yellow leaf curl virus
T9 sequence (residues 1-136 of Rep, tag left off): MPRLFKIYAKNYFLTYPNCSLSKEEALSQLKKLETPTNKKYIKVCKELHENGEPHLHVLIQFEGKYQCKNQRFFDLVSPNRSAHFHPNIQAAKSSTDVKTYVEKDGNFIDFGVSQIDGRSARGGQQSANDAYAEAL
Description: as §1

[10] = test system: T10, Rep nickase domain of wheat dwarf virus
T10 sequence (residues 1-137 of Rep, tag left off): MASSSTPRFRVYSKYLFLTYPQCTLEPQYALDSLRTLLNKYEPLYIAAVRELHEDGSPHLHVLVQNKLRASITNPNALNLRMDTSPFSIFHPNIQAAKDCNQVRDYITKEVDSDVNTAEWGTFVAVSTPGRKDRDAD
Description: as §1

| Sequence | uncleaved DNA left (log2) [1] | uncleaved DNA left (log2) [2] | uncleaved DNA left (log2) [3] | uncleaved DNA left (log2) [4] | uncleaved DNA left (log2) [5] | uncleaved DNA left (log2) [6] | uncleaved DNA left (log2) [7] | uncleaved DNA left (log2) [8] | uncleaved DNA left (log2) [9] | uncleaved DNA left (log2) [10] |
| --- | --- | --- | --- | --- | --- | --- | --- | --- | --- | --- |
| CTTGGTA | 0.0122 | 0.0665 | 0.36 | 1.16 | 0.0126 | 1.11 | -0.0353 | 0.0935 | 0.183 | -0.000839 |
| GGTCTAT | -0.00399 | 0.0584 | 0.597 | 1.36 | 0.102 | 1.99 | 0.0356 | 0.011 | -0.00601 | 0.156 |
| GCTTACT | -2.23 | -0.229 | -0.096 | -1.99 | -0.0614 | 0.145 | -2.66 | 0.000357 | 0.0984 | -0.131 |
| TTTAAAC | -0.00426 | -0.0504 | 0.191 | -0.154 | -0.0709 | -0.239 | 0.0113 | 0.0238 | -0.0569 | -0.00157 |
| CCATTTA | 0.047 | -0.074 | -0.152 | -1.34 | -0.105 | -1.04 | 0.046 | -0.0372 | 0.123 | -0.00449 |
| CCTTCCA | -0.253 | 0.00247 | -0.0644 | -1.4 | -0.023 | -0.633 | -0.221 | -0.115 | -0.0673 | -0.00837 |
| GAGTAAG | 0.0879 | 0.0733 | -0.57 | -0.516 | 0.0885 | -0.827 | -0.0323 | 0.093 | 0.0749 | -0.0154 |
| GTTTGGT | -0.163 | -0.05 | 0.258 | 0.645 | 0.0664 | 1.23 | -0.296 | 0.0222 | 0.0478 | 0.0309 |
| GAGTCGA | 0.00333 | 0.0523 | -0.0876 | -0.0437 | -0.0148 | -0.389 | -0.811 | 0.0643 | 0.0479 | 0.0839 |
| ATTGCAG | 0.0315 | 0.0228 | -0.413 | 1 | 0.0613 | -0.109 | 0.138 | -0.0218 | 0.139 | -0.0327 |
| GGAGCGA | 0.0306 | 0.0213 | 0.158 | 0.238 | 0.00487 | 0.0344 | 0.021 | 0.0298 | 0.0356 | -0.0138 |
| TGAGTCT | -0.0815 | -0.0247 | -0.0814 | -1.38 | -0.0541 | -0.253 | -0.167 | -0.143 | -0.0594 | -0.0895 |
| TACCAAG | 0.116 | 0.0682 | -0.756 | -0.738 | -0.0335 | -1.14 | -0.107 | 0.177 | 0.0731 | 0.0164 |
| AGCAATG | 0.0636 | 0.162 | 0.0845 | 0.665 | -0.0121 | 1.71 | 0.191 | 0.158 | 0.0537 | 0.18 |
| CCCGTCA | -0.181 | -0.0612 | 0.0331 | -0.345 | -0.14 | -0.0804 | -0.283 | -0.0696 | -0.25 | -0.0994 |
